This is one part of the list. The energies were worked out here from pooled read counts, against the library average; single values are noisy.
What follows are sequences tested against T1, Pho4 (S. cerevisiae) (UniProt P07270) (assay: relative binding free energy (BET-seq); higher = weaker binding). Settings: reference: library average.
T1 sequence: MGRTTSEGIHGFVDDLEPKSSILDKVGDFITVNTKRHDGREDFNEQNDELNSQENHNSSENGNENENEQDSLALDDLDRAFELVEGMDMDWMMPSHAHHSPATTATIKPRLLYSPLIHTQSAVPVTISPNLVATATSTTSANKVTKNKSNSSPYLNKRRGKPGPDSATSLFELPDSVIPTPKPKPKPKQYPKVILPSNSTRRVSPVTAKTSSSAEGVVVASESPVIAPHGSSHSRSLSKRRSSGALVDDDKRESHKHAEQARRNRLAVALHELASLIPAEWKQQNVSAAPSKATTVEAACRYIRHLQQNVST

Row | Sequence | relative binding free energy [kcal/mol]
1 | ACGGTCACGTGATGGT | 0.27
2 | TATTTCACGTGTCTTG | 0.19
3 | TTCATCACGTGTCGGG | 0.23
4 | TTAATCACGTGTCTGG | 0.05
5 | GTAGGCACGTGCGAGA | -0.07
6 | AGGTACACGTGCTAGT | -0.03
7 | AGGGTCACGTGAGTAG | 0.27
8 | TTCGGCACGTGCTTGT | -0.22
9 | CGTTGCACGTGAGAAG | 0.24
10 | GTCAACACGTGGGGAT | 0.08
11 | TCATGCACGTGAGAGG | 0.18
12 | GTGTGCACGTGGGTGG | -0.09
13 | GATGCCACGTGTTTTG | -0.08
14 | AATCACACGTGGGGGT | -0.01
15 | GCTTGCACGTGGGGGA | -0.07
16 | GGTATCACGTGTCATG | 0.08
17 | CTTGACACGTGAGTTG | 0.17
18 | AGTGACACGTGTGTTT | -0.05
19 | CTGGGCACGTGTTCGA | 0
20 | AATCGCACGTGGGCGG | -0.14
21 | GTTGCCACGTGGGGTT | -0.19

Row | Sequence | relative binding free energy [kcal/mol]
22 | GTTCTCACGTGGTTGT | 0.17
23 | CTGTTCACGTGTGTAA | 0.36
24 | TGATTCACGTGTTATC | 0.34
25 | GGTTACACGTGGTCGT | -0.01
26 | TGTACCACGTGTGGTT | -0.1
27 | TATGGCACGTGATGTC | -0.1
28 | AGGTTCACGTGGCCGT | 0.23
29 | TGTTTCACGTGGTGTC | 0.14
30 | GGTAGCACGTGGTTGT | -0.13
31 | TAGGGCACGTGAAGCT | 0.14
32 | CGTGTCACGTGCATGT | -0.05
33 | GGGATCACGTGCGGAT | 0.07
34 | AGTGTCACGTGGTTCA | -0.08
35 | GACGGCACGTGACGGT | 0.17
36 | TAATTCACGTGTTTTC | 0.26
37 | TTTGCCACGTGTTTCA | -0.02
38 | GAGATCACGTGTGCGT | 0.17
39 | AAATTCACGTGTTGTT | 0.21
40 | TTTGGCACGTGGCCTT | -0.23
41 | ATGATCACGTGTATAT | 0.22
42 | ATAGGCACGTGGGTTG | -0.17

Row | Sequence | relative binding free energy [kcal/mol]
43 | GGTAGCACGTGTGGAA | 0.17
44 | TATAACACGTGGCGTT | -0.08
45 | AGGCGCACGTGTCGTG | -0.17
46 | ATTTCCACGTGTTGGC | 0.17
47 | TGGCGCACGTGTTGAT | -0.08
48 | TTAACCACGTGGGGTA | -0.24
49 | GTTCGCACGTGGGTAT | 0.03
50 | TTGGTCACGTGAAGCT | 0.44
51 | GGTATCACGTGCTATG | 0.08
52 | AGCTGCACGTGGAGGG | -0.16
53 | GTTGCCACGTGATTTG | 0
54 | AGGCGCACGTGGTTGG | -0.04
55 | CTTTGCACGTGGAGCG | 0.13
56 | TTTGGCACGTGTGCGG | -0.03
57 | TGAGGCACGTGATATA | -0.04
58 | GTAAACACGTGATTGG | 0.11
59 | GGATTCACGTGGATAT | 0.33
60 | GGGTGCACGTGTATTA | 0.1
61 | TAAATCACGTGGCTGG | 0.04
62 | GTGCGCACGTGAGGGC | 0.13
63 | TACTTCACGTGTTAAG | 0.24
